# Experimental data: ChEMBL document CHEMBL4888484, “Replenishing the malaria drug discovery pipeline: Screening and hit evaluation of the MMV Hit Generation Library 1 (HGL1) against asexual blood stage Plasmodium falciparum ,using a nano luciferase reporter read-out” (2022)
# Screen size: about 4,800 compounds; about 420 (8.8%) showed an effect of 50% or more. Some of the results follow.
# Test system: Plasmodium falciparum
# Test: Confirmatory screen in NF54 nanoGlo assay, in single point, at 2uM, 72h
# Type: functional, Erythrocyte
# Settings: timepoint 72 hour
row,SMILES,% Inhibition [%]
1,CC(C)CCC(=O)NCC(=O)Nc1ccc(C#N)cc1,-9
2,CCOc1ccc(N(Cc2ccccc2F)S(=O)(=O)c2ccc3nnc(C)n3c2)cc1,-12
3,Cc1ccc2c(c1)CCCN2S(=O)(=O)c1ccc2ccccc2c1,-14
4,O=C(CO[C@H]1CCCc2c[nH]nc21)NC(C1CC1)C1CC1,-5
5,C[C@H](NC(c1ccccc1)c1ccccc1)c1nnc(-c2cccs2)o1,2
6,Cc1nn(C)c(Cl)c1CNC[C@@H](c1ccsc1)N(C)C,7
7,COc1ccc(-n2nc(C)c3c2NC(=O)C[C@@H]3c2ccc3c(c2)OCO3)cc1,-5
8,Cc1noc(NCc2cc(C)oc2C)n1,-7
9,Cc1ccc(-n2nc(-c3ccccc3)c3cnc4cc(F)ccc4c32)cc1C,-7
10,CCN1c2cc(C(=O)NCc3ccncc3)ccc2C(=O)N2CCCC[C@H]21,-2
11,CCc1nnc(NC(=O)NCc2c[nH]nn2)s1,-3
12,COCCN(Cc1c(-c2ccccc2)noc1N1CCN(C)CC1)C(=O)c1ccc(C)cc1,6
13,COc1ccc(-c2nc3nnnn3cc2C)cc1OC,-2
14,Cc1cnc(C2CC2)n1CCNC(=O)C1(C)CCCCC1,-3
15,CCn1ncc(C(=O)n2nc(C)cc2C)c1C,7
16,N#Cc1c(NC(=O)CN2CCC[C@@H]2CO)sc2c1CCCCC2,1
17,Cc1ccc(Cn2c(=O)c(C(=O)NCc3ccc4c(c3)OCO4)nn(-c3ccc(C(C)C)cc3)c2=O)cc1,64
18,COc1ccc(C(=O)NCN2CCN(c3ccc(F)cc3)CC2)cc1OC,-14
19,Cc1cc(CN(C)c2cc(C3CC3)nc(N(C)Cc3cc(C)on3)n2)no1,-13
20,N#C[C@@H](C(=O)NCc1cccnc1)c1nc(-c2ccccc2)cs1,-1
21,COC(=O)C12CCC(C(=O)NC[C@H]3CCCOC3)(CC1)CC2,3
22,Cn1nccc1C(=O)N(C1CCCCC1)C1CCCCC1,-4
23,CCN(CC)C(=O)c1cc(C)n(-c2ccc3c(c2)OCCO3)c1C,-7
24,N=C(N)NCc1ccc(COCc2ccccc2)cc1,17
25,O=C(CN1CCC2(CC1)NC(c1ccccn1)=NO2)N1CCN(c2ccc(F)cc2)CC1,-2

row,SMILES,% Inhibition [%]
1,O=C1CC(c2ccccc2)N2N=C(N3C(=O)C4CC=CCC4C3=O)NC2=N1 (centres undefined),-7
2,CN(CCOc1ccc(Cl)cc1Cl)[C@H]1CCS(=O)(=O)C1,-7
3,O=C(OC1CCCC1)C1CCCCC1C(=O)N1CCc2ccccc21 (centres undefined),-2
4,COc1ccccc1N1CCN(Cc2nc3ccccc3c(=O)n2-c2ccc(F)cc2)CC1,6
5,Cc1nn(-c2ccccc2)c2nc(Cc3ccccc3)nc(N3CCCN(C(=O)NC4CCCCC4)CC3)c12,30
6,COc1ccc(NC(=O)N2C[C@@H]3C[C@H](NS(=O)(=O)c4ccccc4)[C@H]2C3)c(C)c1,-5
7,Cc1ccc2c(c1)N(C(=O)c1c[nH]c(C)cc1=O)CCC2,-6
8,O=C(c1ccc(-n2cccn2)cc1)N1CCN(c2ccccc2O)CC1,-8
9,CCN1C(=O)c2ccccc2N2C(=O)CC[C@@]12C(=O)Nc1cccc(OC)c1,92
10,C[C@H]1CN(Cc2ccccc2)CC2(CCN(C(=O)N(C)C)CC2)O1,0
11,COc1cccc(Cn2c(=O)c3sccc3n(CC(=O)NCc3ccc(F)cc3F)c2=O)c1,5
12,CCOC(=O)C1=CS/C(=C2/C(=S)C(C)(C)Nc3c(OCC)cccc32)S1,-6
13,CN1CCN(C(=O)[C@H](C(=O)c2cccc(Cl)c2)n2ccccc2=O)CC1,-16
14,Cc1[nH]nc(C(F)(F)F)c1NS(=O)(=O)c1cccs1,4
15,c1ccc2oc(N3CCCCCCC3)nc2c1,-5
16,Cc1cc(=O)n(CC(=O)Nc2cc(C)on2)c(-c2ccc(F)cc2)n1,-5
17,COc1cccc(-c2cn(C)c3c(=O)n(CC(=O)Nc4ccc(C(F)(F)F)cc4)cnc23)c1,2
18,COc1ccc(Cl)cc1C(=O)Nc1cc(C2CC2)nn1-c1nc(C)cc(=O)[nH]1,66
19,Cc1c(NC(=O)c2n[nH]cc2Br)c(=O)n(-c2ccccc2)n1C,-4
20,Cc1cc(C(=O)N[C@@H](C)C(=O)N2CCCCC2)c2nc3n(c2n1)CCCCC3,-2
21,COc1cccc(CN2CCN(c3ccc(F)cc3)C2=O)c1,-6
22,Cc1nn2cnnc2c(C)c1C/C=C/c1ccccc1,-6
23,CCC(C)(C)c1ccc(OCC(=O)Nc2cccc(NC(=O)C3=NN(c4c(Cl)cc(Cl)cc4Cl)C(=O)C3)c2)c(C(C)(C)CC)c1,-8
24,COC(=O)C[C@H](NC(=O)c1ccc2ccccc2n1)C1CC1,-10
25,COc1ccc(-c2c(-c3cccc(OC)c3)[nH]c3c2c(=O)[nH]c(=O)n3C)cc1,74

row,SMILES,% Inhibition [%]
1,Cc1cc(Cl)cc2c1NC(=O)C21NC(CCC(=O)O)[C@H]2C(=O)N(Cc3ccccc3Cl)C(=O)[C@H]21 (some centres undefined),-19
2,Cc1n[nH]c([C@H]2CN(C(=O)OCC(F)(F)F)C[C@@H]2C2CC2)n1,1
3,O=C(NC[C@H](O)c1ccc(Cl)s1)c1ccsc1,1
4,OCCN(Cc1cccnc1)c1cc(-c2ccccc2)nc2ncnn12,5
5,CCc1ccc(/C=C/c2c[nH]c3ccccc23)[n+](CC)c1,89
6,CCn1cc(-c2nc(-c3ccccc3C)no2)c(=O)c2cc(F)c(N3CCOCC3)cc21,37
7,COC(=O)C1C2CCC(C2)C1NC(=O)c1ccncc1 (centres undefined),-1
8,Cc1cccc(NC(=O)c2cc(Cl)c[nH]2)n1,1
9,COc1nn(C)cc1C(=O)N1CCC[C@H](Oc2cccnn2)C1,1
10,CCCN1C(=O)c2ccccc2N2C(=O)CC[C@@]12C(=O)Nc1ccccc1,91
11,CCC(=O)Nc1ccc(Oc2c(C)c(C(=O)O)nn2-c2ccccc2CC)c(S(=O)(=O)NCC(C)C)c1,5
12,CCNC(=O)c1csc(COc2ccc3c(c2)[C@H](c2ccc(C)cc2)N(C(=O)CC(C)C)CC3)n1,36
13,CC(=O)N1C(C(=O)O)Cc2c([nH]c3ccccc23)C1c1ccc2c(c1)OCO2 (centres undefined),2
14,O=C(Nc1[nH]c(=O)ncc1F)c1cc(F)c(F)cc1Br,95
15,CNC(=O)C(c1ccccc1)C(C(=O)NC)c1cccc2ccccc12 (centres undefined),-1
16,C[C@@H](CCc1ccccc1)NC(=O)c1cc2c(Cl)ccc3c2n1CCO3,7
17,CC[C@](O)(C(=O)N(C)Cc1ncon1)c1cccc(Cl)c1,-11
18,O=C(NCCCn1cccn1)[C@H]1CN(S(=O)(=O)c2cccnc2)CC12CCCCC2,2
19,COc1c(O)ccc2c(=O)c3c(O)cc(O)c(OC)c3n(C)c12,-3
20,CCn1c(=O)c(N2CCC[C@H](C(=O)NCc3cccc(C)c3)C2)nc2ccccc21,0
21,Cc1cc(NCCc2nccn2C)ncn1,-15
22,c1cn(C[C@@H]2CCCN2c2nc(C3CCCC3)ns2)nn1,-11
23,COC1CCCCC1NC(=O)c1ccc(-c2noc(C(F)(F)F)n2)cc1 (centres undefined),-1
24,CC[C@@]1(C)CCCN(C(=O)Cc2c(C)noc2Cl)C1,84
25,Cc1cnc(NC(=O)C2CCC(=O)N(C)C2c2cccc(F)c2)s1 (centres undefined),-5

row,SMILES,% Inhibition [%]
1,CC1CCC(NC(=O)N2CCC(OC[C@H]3CCCO3)CC2)CC1 (some centres undefined),-7
2,CCOC(=O)c1nc(-c2cccnc2)cs1,-12
3,Cn1c(C(=O)N2CC[C@H](N)C2)ccc1-c1cccc(Br)c1,0
4,O=C(Nc1cccc(C(F)(F)F)c1)C(Oc1ccccc1)Oc1ccccc1,-20
5,COc1ccc(CNC(=O)Nc2ccc3c(c2)N(C(=O)c2ccccc2)CCC3)cc1OC,25
6,O=S(=O)(c1ccc2nncn2c1)N(Cc1cccc(Cl)c1)c1ccccc1,1
7,CC(C)(C)N(Cc1ccc(F)cc1)C(=O)[C@H]1CCOC1,-1
8,C#CCN1C(=O)N[C@@](CC)(C(C)C)C1=O,10
9,COc1ccccc1CNC(=O)c1nnn(-c2ccc3noc(-c4ccc(Cl)cc4)c3c2)c1C,-1
10,Cc1cccc(CNC(=O)c2n[nH]c3c2CN(C(=O)c2ccoc2)CC3)c1,-8
11,O=C(O)c1ccc(NS(=O)(=O)c2cc(Cl)ccc2OC[C@H]2CCCCO2)cc1,5
12,FC(F)(F)C1CN(c2nc(-c3ccccn3)nc3c2CCC3)C1,67
13,O=C1CN(S(=O)(=O)c2ccc(C(F)(F)F)cc2)C2(CCCCC2)CN1CC1CC1,-10
14,CC(C)(C)n1nc2nc(NCCN3CCCCC3)nc(-c3ccc(F)c(Cl)c3)c2c1N,62
15,Cc1ccc(Nc2nc(C)c(C(=O)NCc3cccc(Br)c3)s2)c(C)c1,-13
16,COc1cccc(COc2cccc(Cl)c2CNc2nnc(C(F)(F)F)o2)c1,-1
17,O=C(NCCOc1ccccc1)c1ccc(C(=O)NCCOc2ccccc2)s1,7
18,CC1=C2CC(C3(N)CC4(CC4)NC3=O)C(O)CC2(C)CCC1 (centres undefined),1
19,Fc1cccc(F)c1-n1c(CN2CCCCC2)csc1=S,-3
20,CCN(CCC1CCN(C(=O)Nc2ccc(OC3CCOCC3)c(C)c2)CC1)CC(C)C,-3
21,CC(C)c1ccc(Oc2cnn(-c3cccc(Cl)c3)c(=O)c2Nc2cccc(C(=O)NC3CC3)c2)cc1,48
22,CC1(C)Oc2ccc(NC(=O)C3CCCCC3)cc2NC1=O,0
23,CCOC(=O)Cc1csc(NC(=O)Cc2c[nH]c3ccccc23)n1,-6
24,Cc1cc(C(=O)N2CC3CCCC3C2C(N)=O)c2c(C)noc2n1 (centres undefined),-6
